Laboratory results taken from a collection of fitness landscapes (doi:10.1016/j.celrep.2020.107928).
The full ranking holds about 81,000 sequences; the median of “one-hybrid fitness for binding NBS DNA” is about -0.1, and the highest 2% start at about 0.36. The list shows a part of the results.

B1: Caulobacter ParB omega fusion; a variant is named by its letters at X, in order, B8GW30 (parent)
chain: MESVVVGEPGMSEGRRGLGRGLSALLGEVDAAPAQAPGEQLGGSREAPIEILQRNPDQPRRTFREEDLEDLSNSIREKGVLQPILVRPSPDTAGEYQIVAGERAWRAAQRAGLKTVPIMVRELDDLAVLEIGIIENVQRADLNVLEEALSYKVLMEKFERTQENIAQTIGKSXSHVANXMRLLXLPDEVQSYLVSGELTAXHARAIAAAADPVALAKQIIEGGLSVRETEALARKAPNLSAGKSKGGRPPRVKDTDTQALESDLSSVLGLDVSIDHRGSTGTLTITYATLEQLDDLCNRLTRGI

Variants of: B1
Test: one-hybrid fitness for binding NBS DNA (the Noc-binding site; scaled: cognate 1, non-cognate 0); higher = stronger binding
Details: with NBS DNA site
In short: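 Bacterial one-hybrid selection in E. coli USO rpoZ- hisB- pyrF- with a HIS3 reporter carrying the site 19 bp from the promoter, screening Caulobacter ParB libraries with four specificity codons randomised (NNS). Cells grew 48 hours at 37°C on M9-minus-histidine plus 0.1 mM IPTG and 5 mM 3-AT. Plasmids before and after selection were Illumina-sequenced, three replicate libraries pooled, and variants under 10 reads dropped. Fitness is the log change in variant-to-wild-type read ratio, rescaled to cognate 1, non-cognate 0.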

Row | Variant | one-hybrid fitness for binding NBS DNA
1 | TSNC | ≤ 0.2
2 | DMNV | ≤ 0.2
3 | EFTR | 0.24
4 | LQYA | ≤ 0.2
5 | TCMD | ≤ 0.2
6 | LYSG | ≤ 0.2
7 | RENT | ≤ 0.2
8 | KAWR | ≤ 0.2
9 | TLWW | ≤ 0.2
10 | RVNQ | ≤ 0.2
11 | LLCG | ≤ 0.2
12 | SESM | ≤ 0.2
13 | GLCR | ≤ 0.2
14 | CWHS | ≤ 0.2
15 | LALC | ≤ 0.2
16 | FGDG | ≤ 0.2
17 | YKCE | ≤ 0.2
18 | RLIH | ≤ 0.2
19 | QTGT | 0.64
20 | KFVR | ≤ 0.2
21 | AQSM | ≤ 0.2
22 | QYMV | ≤ 0.2
23 | VNRP | ≤ 0.2
24 | ETAI | ≤ 0.2
25 | TNAN | ≤ 0.2

Row | Variant | one-hybrid fitness for binding NBS DNA
26 | SNDD | ≤ 0.2
27 | QSNE | ≤ 0.2
28 | MTQH | ≤ 0.2
29 | AHKT | ≤ 0.2
30 | GMCA | ≤ 0.2
31 | YQDG | ≤ 0.2
32 | VGDA | ≤ 0.2
33 | FLKC | ≤ 0.2
34 | NMKR | 0.201
35 | NHLG | ≤ 0.2
36 | NYAM | ≤ 0.2
37 | ASFG | ≤ 0.2
38 | KFFY | ≤ 0.2
39 | CKLR | ≤ 0.2
40 | PSFP | ≤ 0.2
41 | ALLH | ≤ 0.2
42 | QQWF | ≤ 0.2
43 | TRPW | ≤ 0.2
44 | YESG | ≤ 0.2
45 | VTIT | ≤ 0.2
46 | RKVF | ≤ 0.2
47 | PCCR | ≤ 0.2
48 | ADTF | ≤ 0.2
49 | AIRF | ≤ 0.2
50 | DAWR | ≤ 0.2

Row | Variant | one-hybrid fitness for binding NBS DNA
51 | ARMY | ≤ 0.2
52 | NLEG | ≤ 0.2
53 | MIVV | ≤ 0.2
54 | QAHI | ≤ 0.2
55 | WRTR | ≤ 0.2
56 | SIST | ≤ 0.2
57 | QYCI | ≤ 0.2
58 | YYRV | ≤ 0.2
59 | SRTD | ≤ 0.2
60 | KKPT | ≤ 0.2
61 | QQRS | 0.714
62 | PIFL | ≤ 0.2
63 | KRRM | 0.248
64 | SKDC | ≤ 0.2
65 | RLHK | ≤ 0.2
66 | YVHR | ≤ 0.2
67 | GGNT | ≤ 0.2
68 | CTEL | ≤ 0.2
69 | QYDA | ≤ 0.2
70 | PNPE | ≤ 0.2
71 | KEPC | ≤ 0.2
72 | TSTT | ≤ 0.2
73 | NSWS | ≤ 0.2
74 | KTNN | ≤ 0.2
75 | GKKS | ≤ 0.2

Row | Variant | one-hybrid fitness for binding NBS DNA
76 | CFNC | ≤ 0.2
77 | HSTE | ≤ 0.2
78 | PLMG | ≤ 0.2
79 | SMKC | ≤ 0.2
80 | RWKE | ≤ 0.2
81 | PLAK | ≤ 0.2
82 | PVFM | ≤ 0.2
83 | LVSR | ≤ 0.2
84 | HMDL | ≤ 0.2
85 | RLGP | ≤ 0.2
86 | RMIN | ≤ 0.2
87 | AQDA | ≤ 0.2
88 | TIPT | ≤ 0.2
89 | NYRR | ≤ 0.2
90 | IIIR | ≤ 0.2
91 | PGHS | ≤ 0.2
92 | HLFC | ≤ 0.2
93 | NHNF | ≤ 0.2
94 | YLNK | ≤ 0.2
95 | RGSS | ≤ 0.2
96 | MKVM | ≤ 0.2
97 | GYCL | ≤ 0.2
98 | AQRA | ≤ 0.2
99 | QMQH | ≤ 0.2
100 | NGVK | ≤ 0.2

Row | Variant | one-hybrid fitness for binding NBS DNA
101 | PKFV | ≤ 0.2
102 | ICAV | ≤ 0.2
103 | MYQR | ≤ 0.2
104 | RNHC | ≤ 0.2
105 | QKAR | 0.606
106 | MANY | ≤ 0.2
107 | QAWH | ≤ 0.2
108 | YPSM | ≤ 0.2
109 | MRDR | ≤ 0.2
110 | RNGK | ≤ 0.2
111 | KNLN | ≤ 0.2
112 | VNIM | ≤ 0.2
113 | GARH | ≤ 0.2
114 | DRRM | ≤ 0.2
115 | RSRH | 0.335
116 | DVAL | ≤ 0.2
117 | LSVP | ≤ 0.2
118 | QPGN | ≤ 0.2
119 | CHNI | ≤ 0.2
120 | CTRA | ≤ 0.2
121 | RFQF | ≤ 0.2
122 | QPGI | ≤ 0.2
123 | RGHP | ≤ 0.2
124 | KITS | ≤ 0.2
125 | SSSC | ≤ 0.2

Row | Variant | one-hybrid fitness for binding NBS DNA
126 | EQFV | ≤ 0.2
127 | TVDL | ≤ 0.2
128 | CRLE | ≤ 0.2
129 | LTMA | ≤ 0.2
130 | RMYL | ≤ 0.2
131 | THKG | ≤ 0.2
132 | YTPT | ≤ 0.2
133 | HPDG | ≤ 0.2
134 | QCFP | ≤ 0.2
135 | QPKT | 0.201
136 | TGKL | ≤ 0.2
137 | HKKF | ≤ 0.2
138 | PIIR | ≤ 0.2
139 | QMVI | ≤ 0.2
140 | PRTH | ≤ 0.2
141 | HKKG | ≤ 0.2
142 | LPRP | ≤ 0.2
143 | YKNY | ≤ 0.2
144 | TVTN | ≤ 0.2
145 | QMGM | ≤ 0.2
146 | ADSA | ≤ 0.2
147 | QYDF | ≤ 0.2
148 | VKQG | ≤ 0.2
149 | GRLG | ≤ 0.2
150 | RRWL | ≤ 0.2

Row | Variant | one-hybrid fitness for binding NBS DNA
151 | RWNP | ≤ 0.2
152 | GRSS | ≤ 0.2
153 | PPLC | ≤ 0.2
154 | ASYM | ≤ 0.2
155 | YSTF | ≤ 0.2
156 | KILW | ≤ 0.2
157 | LDPR | ≤ 0.2
158 | RYLT | 0.366
159 | TFTK | ≤ 0.2
160 | RINR | 0.524
161 | VTTF | ≤ 0.2
162 | VIMF | ≤ 0.2
163 | RTKY | 0.418
164 | GIQI | ≤ 0.2
165 | WHNR | ≤ 0.2
166 | HHVS | ≤ 0.2
167 | TNFD | ≤ 0.2
168 | GLEK | ≤ 0.2
169 | LMKT | ≤ 0.2
170 | CHYT | ≤ 0.2
171 | CFLV | ≤ 0.2
172 | PQDN | ≤ 0.2
173 | SNIG | ≤ 0.2
174 | FFLR | ≤ 0.2
175 | THCS | ≤ 0.2

Row | Variant | one-hybrid fitness for binding NBS DNA
176 | SVES | ≤ 0.2
177 | TENV | ≤ 0.2
178 | KVNP | ≤ 0.2
179 | YTAT | ≤ 0.2
180 | DATF | ≤ 0.2
181 | KPII | ≤ 0.2
182 | ARIM | ≤ 0.2
183 | YPAT | ≤ 0.2
184 | PYFA | ≤ 0.2
185 | IDTR | ≤ 0.2
186 | RSVK | ≤ 0.2
187 | GTQM | ≤ 0.2
188 | LLEC | ≤ 0.2
189 | EYKA | ≤ 0.2
190 | HHTS | ≤ 0.2
191 | PCAY | ≤ 0.2
192 | TEKA | ≤ 0.2
193 | RLPY | ≤ 0.2
194 | VFCS | ≤ 0.2
195 | RVYP | ≤ 0.2
